# Results reported in PubChem BioAssay AID1347417 (National Center for Advancing Translational Sciences (NCATS), 2020).
# Screen size: about 120,000 compounds; about 5,300 (4.4%) were called active. Inconclusive results, whose numbers are uncertain, are shown with a selection of clear calls. Calls follow the shape of the dose curve; as a rule, active = well fitted inhibition curve with a large enough effect; inconclusive = small, poorly fitted or top-dose-only effect; inactive = no such curve, though single readings can be large or run the other way. Where the call is inconclusive, the potency comes from a doubtful curve fit.
# Assay: qHTS Primary assay for Inhibitors of Plasmodium falciparum Dd2 growth in vitro; also: nearly all actives have a fitted effect of over 65% in size;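 as to activity, negative = inhibition: plate controls were DMSO vehicle for no effect and reference drug for full effect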
# Settings: P. falciparum Dd2 growth, SYBR Green, 72 h; activity, negative = inhibition: at 28.9 µM (top of the series) unless noted; series mostly up to 28.9 µM
# In short: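 Readout: SYBR Green fluorescence, 485 nm excitation, 535 nm emission, after ~16 h lysis at 37C. Before that, Dd2-infected red cells (2.5% hematocrit) grew 72 h with compound, 29 uM top final concentration.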
# Potency is read from the fitted curve at half-maximal effect; tags tell the direction and shape of the fitted curve.
SMILES,Potency,"activity, negative = inhibition"
CN(C)C(=O)c1ccnc(-c2nnc3ccc(NC4CCCCC4)nn23)c1,"inconclusive: 10 µM [inhibitor, partial curve, poor fit]",
COc1ccc(CCNC(=O)c2ccc3c(c2)N(Cc2cc(C)ccc2C)C(=O)c2ccccc2S3=O)cc1OC (configuration not stated),active: 4.47 µM,
c1ccc(C2=NOC3(CCCN(CC4CCCCC4)C3)C2)nc1 (configuration not stated),"inconclusive: 11.2 µM [inhibitor, single point]",
O=C(c1ccc2ccnn2c1)N1CCOCC1,inactive,
Cc1nc2ccc(S(=O)(=O)N(CC(=O)Nc3cccc(Cl)c3)Cc3ccccc3)cc2s1,"inconclusive: 14.1 µM [inhibitor, single point]",
CC(=O)N1CCCC2(C1)CN(C)c1ccc(C(=O)NCC3CC3)cc12 (configuration not stated),inactive,
COc1cccc(S(=O)(=O)N2C[C@@H](Oc3ccccc3)C[C@@H]2C(=O)N2CCOCC2)c1,"inconclusive: 0.1 µM [inhibitor, full curve]",
O=C(c1ccc(N2CC3CC(C2)[C@H]2CCCC(=O)N2C3)nc1)N1CCN(c2ccccn2)CC1 (some centres not stated),inactive,
O=C1c2cnc(-c3ccsc3)nc2OCCN1c1cccc(C(F)(F)F)c1,"inconclusive: 3.55 µM [inhibitor, full curve, poor fit]",
COc1ccc(CCCc2nnc(SCC(=O)Nc3cc(C)ccc3C)o2)cc1,inactive,
Cn1c([C@H]2CCN(Cc3ccc4c(c3)OCO4)C2)nc2ccccc21,"inconclusive: 17.8 µM [inhibitor, single point]",
COc1ccc(C(=O)N[C@@H]2CCC[C@@H]2C(=O)NCc2cccnc2)cc1,inactive,
Cc1noc(C)c1-c1cc2cc(C(C)C)oc2c(-c2cccc(CO)c2)n1,inactive,
COc1ccc(Cl)cc1NC(=O)Cn1c(=O)n(Cc2cccs2)c(=O)c2cccnc21,"inconclusive: 11.2 µM [inhibitor, single point]",
CCOC(=O)c1cc(-c2ccc(C)cc2)n(CC(=O)Nc2ccccc2F)c1C,"inconclusive: 17.8 µM [inhibitor, single point]",
CCOc1ccccc1C(=O)N1CCc2[nH]nc(C(=O)NCCCc3ccccc3)c2C1,inactive,
COc1cc(OC)c(NC(=O)N2CC3CCCN3c3ccccc32)cc1Cl (configuration not stated),"inconclusive: 20 µM [inhibitor, single point]",
COCCCNc1nc(NCc2cccc(Cl)c2)c2cnn(C)c2n1,inactive,
COc1ccc(-c2nc(CSc3nnc(C)n4c3cc3occc34)c(C)o2)cc1OC,"inconclusive: 10 µM [inhibitor, single point]",
CSc1ccc(CCNS(=O)(=O)c2ccc3c(c2)C(C)(C)C(=O)N3C)cc1,inactive,
CC(=O)N1CCN(C[C@@H]2C=C(C)[C@H](Cc3nnc(-c4ccccc4F)o3)C[C@H]2C(C)C)CC1,active: 12.6 µM,
N#Cc1ccc(O[C@@H]2CCOC[C@H]2NC(=O)C2(N3CCCC3)CCCC2)cc1,"inconclusive: 14.1 µM [inhibitor, partial curve, poor fit]",
COc1ccc(CC2CCOC3(CCN(C(=O)NCC(C)C)CC3)C2)cc1 (configuration not stated),"inconclusive: 10 µM [inhibitor, single point]",

SMILES,Potency,"activity, negative = inhibition"
Cc1ccc(C(c2cccc(Br)c2)c2c(C)[nH]c3ccccc23)s1 (configuration not stated),"inconclusive: 10 µM [inhibitor, single point]",
Cc1ccccc1N(C)C1CN(Cc2ccc(C#N)cc2)C1,"inconclusive: 1 µM [inhibitor, partial curve]",
CCc1ccc(S(=O)(=O)N2CCC(n3cnnc3C)CC2)cc1,"inconclusive: 10 µM [inhibitor, single point]",
CN(C)Cc1ccccc1CN(C)c1nc(-c2cccnc2)nc2c1CNC2,"inconclusive: 17.8 µM [inhibitor, single point]",
Cc1cccc(OCC(=O)N(Cc2ccc(C(C)(C)C)cc2)Cc2ccco2)c1,active: 11.2 µM,
CN(C)c1ccc(/C=C/c2noc(-c3ccccc3O)n2)cc1,"inconclusive: 10 µM [inhibitor, single point]",
O=C1NCCCCCCN[C@H]2C[C@H](c3nc(-c4cccnc4)no3)C[C@@H]12,"inconclusive: 17.8 µM [inhibitor, single point]",
O=S(=O)(O)c1ccc(-c2ncc[nH]2)cc1,,inconclusive: -40% [inhibitor] [at 44.1 µM]
CN1Cc2cccn2CC1CNC(=O)c1cccs1 (configuration not stated),"inconclusive: 2.24 µM [inhibitor, full curve]",
CC1CCC2(CC1)OCC(C(=O)N1CCOCC1)N2C(=O)c1ccccc1F (configuration not stated),inactive,
O=c1[nH]c(=O)n(C2CCCCC2)c(O)c1C1=Nc2ccccc2SC(c2ccccc2)C1 (configuration not stated),"inconclusive: 10 µM [inhibitor, single point]",
Cc1cccc(C(=O)N2CCCN(Cc3ccncc3)C(c3ccccc3)CC(=O)NCC2)c1 (configuration not stated),active: 2.24 µM,
Cc1c(C(=O)Nc2ccc(C(C)C)cc2)sc2nc3n(c(=O)c12)CCC3,"inconclusive: 12.6 µM [inhibitor, partial curve]",
CCC(CC)c1nn2c(=O)cc(COc3ccc(NC(=O)c4ccc(C)cc4)cc3)nc2s1,"inconclusive: 2.82 µM [inhibitor, partial curve, poor fit]",
COc1cc2c(cc1CCc1ccccc1)N(C(=O)Cc1ccc3c(c1)OCO3)CC21CCN(C(C)=O)CC1,"inconclusive: 1.41 µM [inhibitor, partial curve, poor fit]",
O=C(c1ccc(C(F)(F)F)cc1)N1CCC2(CC1)CN[S+](=O)([O-])c1cccnc1O2,inactive,
COc1ccc(OC)c(S(=O)(=O)N2CCCC2c2nncn2Cc2ccncc2)c1 (configuration not stated),inactive,
O=c1[nH]c(C2CCCN(Cc3cccc(-c4cccnc4)c3)C2)nc2ccc(F)cc12 (configuration not stated),"inconclusive: 1.26 µM [inhibitor, partial curve, poor fit]",
COc1ccc(CN2C(=O)CO[C@H]3CN(Cc4ccccc4)C[C@H]32)cc1,"inconclusive: 12.6 µM [inhibitor, partial curve, poor fit]",
NCc1ccccc1-c1ccccc1F,"inconclusive: 11.2 µM [inhibitor, single point]",
O=C(c1ccc2c(c1)OCO2)N1CCCC1c1nnc2n1CCNC2 (configuration not stated),"inconclusive: 2.82 µM [inhibitor, full curve, poor fit]",
Cc1nn(C)c(C)c1CCC(=O)N1CCN(c2ccc(C#N)cc2)C(=O)C1,inactive,
COc1ccc(CNC(=O)CCCN2C(=O)COc3ccc(C)cc32)cc1,"inconclusive: 8.91 µM [inhibitor, single point]",

SMILES,Potency,"activity, negative = inhibition"
COc1cccc(Cn2nnc3c(=O)[nH]c(C4CCN(C(=O)c5ccccc5Cl)CC4)nc32)c1,"inconclusive: 20 µM [inhibitor, partial curve, poor fit]",
Cc1ccc(CN2CCCCCNC(=O)CC2c2ccccc2)s1 (configuration not stated),"inconclusive: 11.2 µM [inhibitor, partial curve, poor fit]",
O=C(Cc1cccc(F)c1)N1CCCN(C(=O)C2CC2)c2ccccc21,inactive,
COc1cc(=O)n2c(c1C(=O)Nc1ccccc1F)CCCC2,inactive,
O=C(Nc1ccc(F)c(Cl)c1)N1CC=C(c2c[nH]c3ccccc23)CC1,"inconclusive: 17.8 µM [inhibitor, single point]",
Cn1c(=O)oc2cc(S(=O)(=O)N3CCCC(C(=O)NCc4ccc(F)cc4)C3)ccc21 (configuration not stated),"inconclusive: 17.8 µM [inhibitor, single point]",
COc1ccc(-c2ccc3ncc(Nc4ccnc(N5CCOCC5)c4)n3n2)cn1,"inconclusive: 1.58 µM [inhibitor, full curve, poor fit]",
CC1(c2noc(C3CC3)n2)CCN(C(=O)CNc2ccc3nnc(-c4cccnc4)n3n2)CC1,inactive,
O=C(c1cnccn1)N1CC(F)(F)C[C@H]1c1nc(C2CC2)no1,inactive,
CCc1ccc(NC(=O)N2CCCC(c3noc(COc4ccccc4)n3)C2)cc1 (configuration not stated),"inconclusive: 12.6 µM [inhibitor, single point]",
CC(C)OCCCNC(=O)c1cc2cn(C(C)C)cc2s1,"inconclusive: 20 µM [inhibitor, partial curve, poor fit]",
CCOC(=O)c1ccc(NC(=O)CSc2c3c(nc4cc(Cl)ccc24)CCCC3)cc1,"inconclusive: 17.8 µM [inhibitor, single point]",
COc1cc(OC)c(NC(=O)CCCn2nc(C)c3c(C)n(-c4ccccc4)nc3c2=O)cc1Cl,inactive,
Cc1ccc(-n2c(C3CCN(C(=O)COc4ccc(Cl)cc4C)CC3)n[nH]c2=O)cc1,"inconclusive: 3.98 µM [inhibitor, single point]",
COc1cccc(NC(=O)C(=O)NCC(c2ccc3c(c2)OCO3)N2CCN(C)CC2)c1 (configuration not stated),active: 7.94 µM,
Cc1cccc(NC(=O)CSc2ccc(-c3ccccn3)nn2)c1,"inconclusive: 17.8 µM [inhibitor, single point]",
O=C(NC1CCN(c2cc(-c3cccs3)[nH]n2)CC1)c1cccc(OC(F)(F)F)c1,"inconclusive: 1.78 µM [inhibitor, partial curve]",
CCCn1c(C)cnc1CC1CCN(C(=O)NCc2ccc(OC)cc2)C1 (configuration not stated),"inconclusive: 17.8 µM [inhibitor, single point]",
O=C(NCCc1ccccc1)C1Cn2cccc2C(=O)N1Cc1ccccc1 (configuration not stated),inactive,
CCOC(=O)c1ccc(N2C(=O)c3n[nH]c(-c4ccco4)c3C2c2ccc(C)cc2)cc1 (configuration not stated),"inconclusive: 8.91 µM [inhibitor, partial curve, poor fit]",
COc1ccc(-c2nc(C3CC3)nc3c2CN(C(=O)c2ccccc2OC)CC3)cc1,"inconclusive: 11.2 µM [inhibitor, single point]",
